Results as given in PubChem BioAssay AID662 (National Center for Advancing Translational Sciences (NCATS), 2007).
Out of some 71,000 compounds screened, about 1,800 (2.5%) were called active. The shares of active, inactive and inconclusive entries below differ from those in the screen. Calls come from the whole dose curve; as a rule, active = well fitted activation curve with a large enough effect in the signal ratio, with a control signal flat (not every such curve was filed as active); inconclusive = small, poorly fitted or top-dose-only effect, or effect the other way, or a change in a side signal; inactive = flat fitted curve, though single readings scatter; the % refers to the signal ratio. Potencies of inconclusive entries are doubtful fits and often do not repeat.

Experiment: Cell signaling CRE-BLA (Fsk stim); for activity change, negative = inhibition: % of control where 0% means no effect
Settings: CHO CRE-bla reporter (cAMP response element driving beta-lactamase), forskolin EC10, beta-lactamase ratio; activity change, negative = inhibition: at 38.2 µM (top of the series) unless noted
Summary of the method: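 Forskolin analogue NKH 477 at EC10 stimulated CRE-driven beta-lactamase in CHO cells alongside compound dilution series. Beta-lactamase was measured with CCF4, excitation 405 nm, emission ratio 460/530 nm.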
Potency is the fitted concentration of half-maximal effect; tags give direction and shape of the fitted curve.

SMILES | Potency | activity change, negative = inhibition
CCC1CCCCN1Cc1nc2c(c(=O)n(C)c(=O)n2C)n1CC(C)C (stereo unspecified) | inconclusive: 12.6 µM [rising, single point] | 
CCNc1ncc2nc(-c3ccc(F)cc3)c(=O)n(CCC#N)c2n1 | active: 3.16 µM | 
CC(=O)c1c(C)[nH]c(C(=O)NCCc2cccc(C)c2)c1C |  | inconclusive: 13.5%
O=C(Cc1c[nH]c2ccccc12)Nc1nc2ccccc2[nH]1 | inconclusive: 6.31 µM [falling, partial curve, poor fit] | 
COc1cccc(C2CC(c3ccc(Cl)cc3)Nc3nc(N)nn32)c1 (stereo unspecified) |  | inactive: -4.59%
CCOc1cc(C)c(S(=O)(=O)NC2CCCCC2)cc1C |  | inactive: 8.52%
CN1C(=O)/C(=C2\SC(=S)N(CC3CCCO3)C2=O)c2ccccc21 (stereo unspecified) |  | inactive: 1.93%
CNc1nc(-c2cccc(C#N)c2)nc2ccccc12 |  | inconclusive: 26.9%
COc1ccc(Cl)c(Cn2c(NCC(C)O)nc3c2c(=O)n(C)c(=O)n3C)c1 (stereo unspecified) | inconclusive: 12.6 µM [rising, single point] | 
O=C(CN1CCN(S(=O)(=O)c2ccc(F)cc2)CC1)Nc1ccc2c(c1)OCCO2 |  | inconclusive: -12.9%
Cc1ccc(C(=O)/C=C/Nc2ccccc2C(N)=O)o1 |  | inconclusive: 9.55%
Cc1sc(NC(=O)c2ccc(Cl)s2)c(C(N)=O)c1C |  | inconclusive: 16.2%
Nc1c[n+](N2CCOCC2)no1 | inconclusive: 2.51 µM [rising, full curve] | 
CCOC(=O)C1=C(N2CCCCC2)c2cc3c(n2C1=O)CCCC3 | inconclusive: 10 µM [rising, single point] | 
CN(C)C(=O)c1ccc(-c2ccc3ncnc(NCc4cccs4)c3c2)cc1 | inconclusive: 15.8 µM [rising, partial curve] | 
O=C(O)C1CCN(C(=O)c2ccccc2C(=O)N2CCC(C(=O)O)CC2)CC1 |  | inactive: -11.7%
COc1cccc(-n2nnc3c(=O)n(Cc4ccc(F)cc4)cnc32)c1 |  | inconclusive: 19.2%
O=C(c1cc2ccccc2oc1=O)N1CCCN(C(=O)c2cc3ccccc3oc2=O)CC1 | inconclusive: 10 µM [falling, single point] | 
CN(C)c1ncc2nc(-c3ccc(Cl)cc3)c(=O)n(CCC#N)c2n1 | inconclusive: 2 µM [rising, partial curve] | 
Cc1ccc(Cl)cc1N1CCN(C(=O)CCS(=O)(=O)c2cccc3nonc23)CC1 |  | inconclusive: 5.41%

SMILES | Potency | activity change, negative = inhibition
Cc1cc(=O)oc2cc(OCC(=O)OCc3nnc(-c4ccccc4)o3)ccc12 |  | inactive: 0.876%
CSCCC(C(=O)Nc1ccc2c(c1)OCO2)N1C(=O)c2ccccc2C1=O (stereo unspecified) |  | inconclusive: -20.7%
O=C(NC12CC3CC(CC(C3)C1)C2)c1ccccc1O | inconclusive: 12.6 µM [rising, single point] | 
Cc1cc(C(=O)Nc2nnc(-c3ccccc3)s2)no1 |  | inconclusive: 2.32%
Cc1ccc(C(=O)NC2CC3CCCC(C2)N3C(=O)NC2CCCCC2)cc1 (stereo unspecified) |  | inconclusive: -3.67%
Cc1noc(C)c1CSc1nc2ccccc2c(=O)n1-c1ccc(F)cc1F | inconclusive: 12.6 µM [rising, partial curve] | 
N#C/C=C\Oc1ccc(Cl)cc1N |  | inconclusive: -18.8%
OC(CNc1nc2ccccc2s1)c1ccccc1 (stereo unspecified) |  | inactive: 14.9%
CCOC(=O)c1cnc(-n2nc(C)cc2C)nc1Nc1ccc(N(C)C)cc1 | active: 0.631 µM | 
O=C(CCCCC(=O)N1CCN(c2ccccc2)CC1)N1CCN(c2ccccc2)CC1 |  | inconclusive: -17.9% [at 7.6 µM]
CC(NC(=O)c1cc2c(=O)n(C)c3ccccc3c2n1C)c1ccc2c(c1)OCCO2 (stereo unspecified) | inconclusive: 1.58 µM [rising, partial curve] | 
COc1ccc2cnn(CCOc3ccccc3)c(=O)c2c1OC | inconclusive: 12.6 µM [rising, single point] | 
Cc1ccc(-c2c3c(=O)n(C)c(=O)n(C)c3cn2N2CCOCC2)cc1 | inconclusive: 12.6 µM [rising, single point] | 
CC(C)C[C@H]1C(=O)N2CCC[C@@H]2[C@]2(O)O[C@](NC(=O)[C@H]3C=C4c5cccc6[nH]c(Br)c(c56)C[C@H]4N(C)C3)(C(C)C)C(=O)N12 | inconclusive: 10 µM [rising, partial curve] | inconclusive: 7.55%
O=C(CN(C1CCCCC1)S(=O)(=O)c1ccc(Cl)cc1)NCCCO |  | inactive: -7.08%
CC(=O)c1cc2c(cc1NC(=O)CN1CCOCC1)OCO2 |  | inconclusive: 20.5%
CC(NC(=O)c1nn(C)c(=O)c2ccccc12)c1ccccc1 (stereo unspecified) | inconclusive: 12.6 µM [rising, partial curve] | 
CCN(CC(=O)NC(=O)NCc1ccco1)Cc1nc2ccccc2c(=O)[nH]1 |  | inconclusive: -7.1%
CCOC(=O)NC1(Nc2ccc(Cl)cn2)Oc2ccccc2O1 | inconclusive: 10 µM [falling, single point] | 
CCN(CC)S(=O)(=O)c1cccc(-c2nnc(SCCOc3ccccc3C)o2)c1 |  | inconclusive: 19.4% [cytotoxic]
